± gives the standard deviation of the averaged measurements. This is one part of the list.

The test system of this test is PfAP2-EXP AP2 domain (GST-tagged). Briefly: gcPBM binding intensity (ln(normalized median fluorescence intensity)); higher = stronger DNA binding. A digest of the protocol: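 Each value is the highest Masliner-normalised natural-log median intensity across replicate spots of either orientation of a probe. The probes were primer-extended double-stranded 36-bp intergenic genomic sequences on an Agilent 4 × 180k array, alongside negative controls, exposed for 1 h to GST-tagged P. falciparum DNA-binding domains expressed in E. coli. Bound protein was picked up with Alexa488 anti-GST antibody and scanned at 488 nm.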
With “ATTTCTTTTTTTTCTTGTACACATATTAAATTTATG [XGTACX_site734]”, the “gcPBM binding intensity (ln)” value was determined as 9.14 ± 0.47.
“TTCTCTATAAATGCTGCACACACATTTAATTATTTA [CACACA_site8828]”: the “gcPBM binding intensity (ln)” value was determined as 8.83 ± 0.38.
For “TCTAAACAAATTAATAAAATAAGTATTCAAAATTAT [CACACA_negctrl_site731]”, the “gcPBM binding intensity (ln)” value turned out to be 8.21 ± 0.45.
To “GTAAAATTTCGGATTTGTACACATGGCTATGAAAAA [XGTACX_site939]” belongs 8.71 ± 0.35; to “AATATTTATTTTTTTGCACACATATTTTACATTTTA [CACACA_site3182]”, 9.04 ± 0.34.
Turning to “TTCCCATGTAATATTAAACACACACCCATATAACAC [CACACA_site7905]”, the “gcPBM binding intensity (ln)” value worked out at 8.99 ± 0.3.
As for “TAACTACTAGAAAAAACACACAAAAAGTAAATATAT [CACACA_site2740]”, the “gcPBM binding intensity (ln)” value stood at 8.98 ± 0.85.
“TATATAAATGTATACACACACATATAAATATAAATA [CACACA_site6751]”: the “gcPBM binding intensity (ln)” value came to 8.46 ± 0.49.
To “ATTCTAATTACATATACACACAAAGGTTCATAACAA [CACACA_site3076]” belongs 8.47 ± 0.37; to “ATAAACAGATCATATACATGCATATATGTAGAATAA [TGCATGCA_site157]”, 8.81 ± 0.33; to “TAAAATATAAGACACACACACATATATTTATATATC [CACACA_site6248]”, 8.76 ± 0.33.
As for “TACCAAATCACCCCTTGTACCCATTTTAAAATTTTC [XGTACX_site396]”, the “gcPBM binding intensity (ln)” value was found to be 8.94 ± 0.51.
With “TGTTTAACATTTATATGTACATATATTCACATATTA [XGTACX_site342]”, the “gcPBM binding intensity (ln)” value turned out to be 8.79 ± 0.4.
To “TGATTTTTTTTTTTTTTTTTTTTTTTTTTAGTTTGC [CACACA_negctrl_site1057]” belongs 7.67 ± 0.54; to “ACATACGAAAATTGGAAGGATAGATAAAAAGAAAAT [CACACA_negctrl_site51]”, 8.89 ± 0.6; to “GTACAGATGTAGTATGCATGTAATTATATATAAATT [TGCATGCA_site292]”, 9.06 ± 0.28.
As to “ATATAAAAAAGAGGGAGTACTTGTAACAAAATAATA [XGTACX_site8679]”, the “gcPBM binding intensity (ln)” value was found to be 8.96 ± 0.4.
With “ACATGTTCATAATTTTGTACATATTTTTATGAACAT [XGTACX_site3976]”, the “gcPBM binding intensity (ln)” value stood at 8.85 ± 0.36.
As for “ACGTAGTAGGTATTATGTACATATTTATAAGTATAA [XGTACX_site7336]”, the “gcPBM binding intensity (ln)” value came to 8.63 ± 0.44.
As to “ATATATTCATTTTTATGTACGTAAATTGTAAATTGG [XGTACX_site8242]”, the “gcPBM binding intensity (ln)” value was found to be 8.5 ± 0.071.
For “TGCATTATTTTATGAAGTACATATGAACAAAAAATT [XGTACX_site2185]”, the “gcPBM binding intensity (ln)” value worked out at 8.68 ± 0.3.
“AAAATAATAATAAAAAGTACATGTGTATATAATAAA [XGTACX_site754]”: the “gcPBM binding intensity (ln)” value is 8.97 ± 0.49.
Next, “AAATTATCCAAAAATTGTACTTAAAACAACATAAAA [XGTACX_site6238]”: 8.51 ± 0.3.
To “AAAGAAGGTAAACACACACACACACCGACAAAAAAA [CACACA_site9255]” belongs 8.7 ± 0.6; to “TTTCTCTTATTCCAATCTATAATAAGTATCAATATT [CACACA_negctrl_site179]”, 8.46 ± 0.47; to “ACCATTTGTAGGTAAACACACATTATTCTTAATATC [CACACA_site5453]”, 8.43 ± 0.38.
For “AATATTAAACAAATGAAAAAAAAATATATATTATAT [CACACA_negctrl_site742]”, the “gcPBM binding intensity (ln)” value is 8.57 ± 0.36.
Regarding “TATGTTTTTCGGTATGCATGCATATGCTTAATAATA [TGCATGCA_site184]”, the “gcPBM binding intensity (ln)” value was 9.83 ± 0.33.
Regarding “TTTAATTAAAATATATGTACATATATATATATATAT [XGTACX_site4517]”, the “gcPBM binding intensity (ln)” value was 10.4.
For the sequence “AAAATAACACAAATGGGTACATATTATATTAAATAA [XGTACX_site7027]”, the “gcPBM binding intensity (ln)” value is 8.51 ± 0.34.
To “AATATATATATGATTATATATATATATATATATATA [GTGCAC_negctrl_site290]” belongs 9.91 ± 0.53.
As for “TTTTTTTCGTATATTACACACTATATATAGAAATTA [CACACA_site298]”, the “gcPBM binding intensity (ln)” value is 8.56 ± 0.35.
As to “GGAGAAAAAAAAAAAAAACACACGGTACATTCAAAG [CACACA_site1503]”, the “gcPBM binding intensity (ln)” value stood at 8.69 ± 0.72.
Take “AAAAAATGTAAATATAAACAACCAAAGGGGGTATAC [GTGCAC_negctrl_site465]”: the “gcPBM binding intensity (ln)” value worked out at 8.84 ± 0.49.
Regarding “TTATTAAAGGAAAAATGTACATATAAATGAATATGT [XGTACX_site23]”, the “gcPBM binding intensity (ln)” value amounted to 8.62 ± 0.28.
Next, “GAAAAAAAACACATTGTGCACTTTTCCTTAAGTATA [GTGCAC_site9475]”: 8.68 ± 0.15; “TTAAAGTATAACTGTACATGCGAGTAAAAGAATGAC [TGCATGCA_site899]”: 9.57 ± 0.43; “TACGTGAAGTTATATACACACATAAATATGTCTGTA [CACACA_site7463]”: 8.21 ± 0.4.
To “ATAATATTTTATGGTTGTACTTTTAGTTCTTTTTTT [XGTACX_site5756]” belongs 8.51 ± 0.42; to “ATTAAATATATTTTGCGTACACAAAAAAATACGTTC [XGTACX_site3862]”, 8.87 ± 0.38.
Take “AAAAAAAAAAAGCACACACACATATGCGTATATATA [CACACA_site954]”: the “gcPBM binding intensity (ln)” value worked out at 8.49 ± 0.57.
“ATTACCATATTTTGTACACACATCTTTATCTCAATA [CACACA_site3217]”: the “gcPBM binding intensity (ln)” value was determined as 9.05 ± 0.49.
As to “TAAAAATTAAAGTGTACACATATATATATATATATA [CACACA_site4781]”, the “gcPBM binding intensity (ln)” value is 10.2 ± 0.38.
On to “TATAAACCGACGAAAACACACATATGTAAATATATA [CACACA_site491]”, for which the “gcPBM binding intensity (ln)” value came out at 8.94 ± 0.59.
Turning to “TTTTATGTTTATGTGGTGCATGTTTTGAAGAAAATA [GTGCAC_site9616]”, the “gcPBM binding intensity (ln)” value is 9.02 ± 0.18.
To “AAACCTATGTATATTATACACACTCCAAACTATTAT [CACACA_site8536]” belongs 8.64 ± 0.44.
As to “CGGGGGTAGTTTTATGCACACGTTTATTAATGCTTC [CACACA_site5717]”, the “gcPBM binding intensity (ln)” value is 9.43 ± 0.61.
On to TGAAAAACTATCAGAGTGCATATATAGCTCGATACA, for which the “gcPBM binding intensity (ln)” value turned out to be 8.64 ± 0.28.
As for “ACCAATAATATACATACACACATAAATGTTTATATA [CACACA_site4328]”, the “gcPBM binding intensity (ln)” value turned out to be 8.57 ± 0.65.
On to “ACATGAATATATACACGTACATATATACATATATAT [XGTACX_site5872]”, for which the “gcPBM binding intensity (ln)” value is 8.51 ± 0.18.
Take “TAAAATAATATATGGTGTACACAAAAGTATAAATAA [XGTACX_site4991]”: the “gcPBM binding intensity (ln)” value worked out at 9.13 ± 0.42.
“TATATATATATATTATGTACTCATTTATTATCTTTT [XGTACX_site8051]”: the “gcPBM binding intensity (ln)” value was 9.97 ± 0.13.
“ATATAAAAAAAATTTAGTACATATATATATATATAT [XGTACX_site8635]”: the “gcPBM binding intensity (ln)” value was determined as 10.2 ± 0.48.
Take “AAAAAAATAATTAACACACACATGTATATCTATATA [CACACA_site3139]”: the “gcPBM binding intensity (ln)” value came out at 8.41 ± 0.61.
In the case of “ATATGATTTGGATGTAGTACATATTTTTTTATGTTT [XGTACX_site1929]”, the “gcPBM binding intensity (ln)” value came out at 8.56 ± 0.36.
Next, “AACCAAATTTCACCATGTACATATTGATAAATATAT [XGTACX_site1374]”: 8.7 ± 0.34; “GCACCAAAAAAAAGACGTACAGTTATATTAAAATAG [XGTACX_site8926]”: 8.825 ± 0.078.

(Values after the supplement of paper PMC11417369.)
